Test results: article PMC9596831
Results are given in words; binding and its absence hold for the method and conditions named. For part of these data: Binding seen in cells or lysates may run through a third protein. Some entries that bind do so weakly or less than the wild type.

By UniProt entry, the sequences of proteins in these tests, tags left out.
UniProt P09429: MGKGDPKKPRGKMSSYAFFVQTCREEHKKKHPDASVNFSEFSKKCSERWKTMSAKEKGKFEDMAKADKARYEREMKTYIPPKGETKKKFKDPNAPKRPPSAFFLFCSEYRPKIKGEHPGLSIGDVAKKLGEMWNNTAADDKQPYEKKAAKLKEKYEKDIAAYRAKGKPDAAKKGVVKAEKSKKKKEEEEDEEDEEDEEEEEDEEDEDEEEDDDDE
UniProt Q13547: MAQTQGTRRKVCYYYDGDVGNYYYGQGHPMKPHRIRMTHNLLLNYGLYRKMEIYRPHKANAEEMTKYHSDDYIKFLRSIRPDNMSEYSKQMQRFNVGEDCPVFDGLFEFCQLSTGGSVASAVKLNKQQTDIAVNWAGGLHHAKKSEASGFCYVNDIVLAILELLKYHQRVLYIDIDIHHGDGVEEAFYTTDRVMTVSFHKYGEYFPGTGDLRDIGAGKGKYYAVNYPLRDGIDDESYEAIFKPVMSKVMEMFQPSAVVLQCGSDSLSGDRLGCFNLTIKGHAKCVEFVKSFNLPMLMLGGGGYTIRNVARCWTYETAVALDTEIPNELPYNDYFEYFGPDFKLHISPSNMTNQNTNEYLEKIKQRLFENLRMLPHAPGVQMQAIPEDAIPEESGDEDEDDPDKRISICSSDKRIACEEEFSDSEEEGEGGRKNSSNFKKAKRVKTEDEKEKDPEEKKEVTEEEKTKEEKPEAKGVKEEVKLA
UniProt Q9UKV0: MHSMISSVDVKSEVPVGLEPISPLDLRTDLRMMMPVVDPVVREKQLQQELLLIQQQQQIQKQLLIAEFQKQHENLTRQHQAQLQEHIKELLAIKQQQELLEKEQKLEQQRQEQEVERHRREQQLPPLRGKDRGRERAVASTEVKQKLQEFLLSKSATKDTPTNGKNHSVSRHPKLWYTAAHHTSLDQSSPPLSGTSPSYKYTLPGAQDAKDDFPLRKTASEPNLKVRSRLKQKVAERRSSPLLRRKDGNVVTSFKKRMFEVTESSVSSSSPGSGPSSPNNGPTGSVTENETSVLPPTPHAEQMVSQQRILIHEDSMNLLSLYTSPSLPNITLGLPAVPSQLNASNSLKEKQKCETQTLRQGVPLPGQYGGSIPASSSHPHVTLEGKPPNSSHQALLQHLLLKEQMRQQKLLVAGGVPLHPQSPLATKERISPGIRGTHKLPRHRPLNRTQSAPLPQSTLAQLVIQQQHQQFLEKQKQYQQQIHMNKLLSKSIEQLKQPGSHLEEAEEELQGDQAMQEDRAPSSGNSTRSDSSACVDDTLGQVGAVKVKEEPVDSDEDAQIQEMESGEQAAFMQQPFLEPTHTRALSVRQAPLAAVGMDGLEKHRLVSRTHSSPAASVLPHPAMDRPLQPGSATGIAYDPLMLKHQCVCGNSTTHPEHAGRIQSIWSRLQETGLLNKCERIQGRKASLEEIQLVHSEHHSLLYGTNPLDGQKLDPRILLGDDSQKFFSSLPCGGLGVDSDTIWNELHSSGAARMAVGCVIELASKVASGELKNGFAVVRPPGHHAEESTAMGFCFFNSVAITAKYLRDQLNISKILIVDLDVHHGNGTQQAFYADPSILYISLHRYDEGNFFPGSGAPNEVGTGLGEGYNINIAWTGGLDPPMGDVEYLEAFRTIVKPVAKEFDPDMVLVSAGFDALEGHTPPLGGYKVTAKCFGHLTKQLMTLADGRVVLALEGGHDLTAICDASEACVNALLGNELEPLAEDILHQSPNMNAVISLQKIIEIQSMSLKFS
UniProt Q9UBN7: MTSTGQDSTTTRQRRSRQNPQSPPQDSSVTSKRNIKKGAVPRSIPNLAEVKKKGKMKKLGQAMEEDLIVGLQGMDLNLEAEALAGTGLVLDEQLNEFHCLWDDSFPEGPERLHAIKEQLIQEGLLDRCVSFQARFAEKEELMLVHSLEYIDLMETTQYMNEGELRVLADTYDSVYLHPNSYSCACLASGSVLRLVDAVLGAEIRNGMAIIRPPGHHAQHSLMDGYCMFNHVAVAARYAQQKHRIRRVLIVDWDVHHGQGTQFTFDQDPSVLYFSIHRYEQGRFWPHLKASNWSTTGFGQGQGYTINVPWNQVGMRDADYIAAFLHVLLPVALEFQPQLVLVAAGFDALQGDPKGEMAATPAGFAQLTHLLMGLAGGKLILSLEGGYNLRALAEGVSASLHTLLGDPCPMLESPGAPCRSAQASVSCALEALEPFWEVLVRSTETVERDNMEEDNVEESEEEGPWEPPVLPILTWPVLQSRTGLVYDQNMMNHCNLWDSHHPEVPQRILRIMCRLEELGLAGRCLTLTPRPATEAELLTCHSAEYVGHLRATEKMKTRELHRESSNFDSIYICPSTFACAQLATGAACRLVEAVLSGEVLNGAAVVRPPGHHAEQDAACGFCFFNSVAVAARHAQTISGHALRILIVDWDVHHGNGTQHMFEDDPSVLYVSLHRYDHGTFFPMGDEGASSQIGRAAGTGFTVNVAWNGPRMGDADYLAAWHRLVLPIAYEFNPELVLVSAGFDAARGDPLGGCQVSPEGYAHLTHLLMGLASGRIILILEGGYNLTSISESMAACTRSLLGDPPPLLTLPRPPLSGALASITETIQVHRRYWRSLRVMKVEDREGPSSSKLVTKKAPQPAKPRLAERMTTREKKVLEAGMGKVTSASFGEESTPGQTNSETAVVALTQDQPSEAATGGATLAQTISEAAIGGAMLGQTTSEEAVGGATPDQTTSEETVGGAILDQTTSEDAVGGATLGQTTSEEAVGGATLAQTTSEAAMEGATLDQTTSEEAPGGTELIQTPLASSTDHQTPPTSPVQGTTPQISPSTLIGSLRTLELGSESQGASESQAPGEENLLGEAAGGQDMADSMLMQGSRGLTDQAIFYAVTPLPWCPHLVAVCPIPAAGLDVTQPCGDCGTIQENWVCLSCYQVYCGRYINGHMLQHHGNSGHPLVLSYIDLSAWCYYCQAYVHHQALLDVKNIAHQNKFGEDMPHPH
UniProt O15379: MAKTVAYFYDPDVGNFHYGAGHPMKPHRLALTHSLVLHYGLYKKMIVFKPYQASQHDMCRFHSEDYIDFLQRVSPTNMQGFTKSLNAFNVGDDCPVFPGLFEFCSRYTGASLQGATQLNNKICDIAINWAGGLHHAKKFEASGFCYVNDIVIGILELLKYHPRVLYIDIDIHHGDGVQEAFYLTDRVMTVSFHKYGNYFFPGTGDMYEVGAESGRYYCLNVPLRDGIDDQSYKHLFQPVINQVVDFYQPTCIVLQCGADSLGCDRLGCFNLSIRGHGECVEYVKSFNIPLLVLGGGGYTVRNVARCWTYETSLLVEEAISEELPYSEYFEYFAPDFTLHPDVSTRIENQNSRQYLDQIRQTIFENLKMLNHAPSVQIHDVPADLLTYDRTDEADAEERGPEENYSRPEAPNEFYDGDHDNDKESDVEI
UniProt Q9UQL6: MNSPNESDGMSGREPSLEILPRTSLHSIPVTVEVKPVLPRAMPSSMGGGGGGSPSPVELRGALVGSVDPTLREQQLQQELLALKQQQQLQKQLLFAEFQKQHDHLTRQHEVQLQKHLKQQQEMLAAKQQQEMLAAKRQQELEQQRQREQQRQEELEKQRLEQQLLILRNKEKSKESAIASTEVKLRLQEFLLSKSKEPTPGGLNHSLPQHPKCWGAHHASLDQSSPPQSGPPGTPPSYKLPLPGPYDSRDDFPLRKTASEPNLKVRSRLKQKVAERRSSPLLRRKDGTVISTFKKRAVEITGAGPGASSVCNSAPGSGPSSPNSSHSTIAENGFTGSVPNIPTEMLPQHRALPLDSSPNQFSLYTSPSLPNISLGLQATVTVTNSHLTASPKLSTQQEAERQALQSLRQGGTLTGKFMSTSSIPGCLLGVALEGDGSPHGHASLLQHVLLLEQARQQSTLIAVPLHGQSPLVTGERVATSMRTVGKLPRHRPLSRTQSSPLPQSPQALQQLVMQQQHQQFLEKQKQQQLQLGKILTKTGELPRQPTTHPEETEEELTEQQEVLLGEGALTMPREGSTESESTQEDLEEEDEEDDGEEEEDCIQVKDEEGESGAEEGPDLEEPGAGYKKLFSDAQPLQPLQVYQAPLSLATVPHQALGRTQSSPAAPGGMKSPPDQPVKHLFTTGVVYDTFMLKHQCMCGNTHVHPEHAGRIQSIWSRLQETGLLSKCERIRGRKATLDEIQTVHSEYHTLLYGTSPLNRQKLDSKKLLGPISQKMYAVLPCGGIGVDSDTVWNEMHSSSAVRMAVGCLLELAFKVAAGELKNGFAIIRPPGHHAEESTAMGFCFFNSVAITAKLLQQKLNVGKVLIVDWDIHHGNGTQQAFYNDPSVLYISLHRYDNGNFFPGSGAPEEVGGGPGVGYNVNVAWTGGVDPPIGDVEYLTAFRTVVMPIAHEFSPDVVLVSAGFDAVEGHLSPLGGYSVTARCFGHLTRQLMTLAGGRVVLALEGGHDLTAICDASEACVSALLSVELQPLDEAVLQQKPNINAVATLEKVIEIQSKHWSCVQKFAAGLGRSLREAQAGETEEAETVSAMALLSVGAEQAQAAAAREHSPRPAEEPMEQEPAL

Experiments:
[1] = biological target: FLAG-tagged HMGB1 (high-mobility group box 1) expressed in U2OS cells (UniProt P09429); test: co-IP; anti-FLAG (M2) beads on lysates of U2OS cells expressing pCDH-FLAG-HMGB1 (sh-ctrl); western blot for HDAC1-10; RIP lysis buffer, RNase-free, 4 h at 4 °C
[2] = biological target: histone deacetylase 1 (HDAC1), endogenous in U2OS cells (human (endogenous in U2OS)) (UniProt Q13547); test: co-IP; IgG or anti-HDAC1 antibodies on lysates of U2OS cells expressing sh-ctrl or sh-VNGD; endogenous HMGB1 detected by western blot; RNase-free
[3] = biological target: Recombinant FLAG-tagged HMGB1 protein purified from 293T cells (UniProt P09429); test: pull-down; in vitro binding assay: recombinant FLAG-HMGB1 and HIS-HDAC1 with in vitro transcribed sense or antisense VNGD RNA; FLAG IP, western blot against HIS and FLAG; both purified
[4] = biological target: histone deacetylase 1 (HDAC1), endogenous in U2OS cells (human (endogenous in U2OS)) (UniProt Q13547); test: co-IP; two-step IP in U2OS cells expressing FLAG-HMGB1: first IP with anti-FLAG antibodies, elution with 3xFlag peptides, second IP with HDAC1 antibodies; lysis buffer 20 mM Hepes pH 7.8, 400 mM KCl, 0.5% NP-40
[5] = biological target: pBIND-HMGB1 (mammalian two-hybrid fusion) (UniProt P09429); test: two-hybrid; mammalian two-hybrid: pBIND-HMGB1 and pACT-HDAC1 with pG5luc in U2OS cells after 48 h transduction with sh-ctrl or sh-VNGD; luciferase normalised to Renilla
[6] = biological target: high-mobility group box 1 (HMGB1), endogenous in U2OS cells (human (endogenous in U2OS)) (UniProt P09429); test: co-IP; IgG or anti-HMGB1 antibodies on lysates of control (pCDH-ctrl) or VNGD-overexpressing U2OS cells, with or without glucose for 24 h; endogenous HDAC1 detected by western blot; RNase-free
[7] = biological target: FLAG-tagged HMGB1 (high-mobility group box 1) expressed in U2OS cells (UniProt P09429); test: co-IP; two-step IP in U2OS cells expressing FLAG-HMGB1: first IP with anti-FLAG antibodies, elution with 3xFlag peptides, second IP with HDAC1 antibodies; lysis buffer 20 mM Hepes pH 7.8, 400 mM KCl, 0.5% NP-40
[8] = biological target: FLAG-tagged HMGB1 (high-mobility group box 1) expressed in U2OS cells (UniProt P09429); test: co-IP; as a1, but U2OS cells with VNGD (lncRNA Vanguard) silenced by sh-VNGD

| binding [1] | Molecule | other results |
| --- | --- | --- |
| no binding | HDAC9, endogenous in U2OS cells (from UniProt Q9UKV0 1-1011) (enzyme) | – |
| – | high-mobility group box 1 (HMGB1), endogenous in U2OS cells (from UniProt P09429 1-215) | binding [2]: binds |
| – | Recombinant His-tagged HDAC1 purified from E. coli (from UniProt Q13547 1-482) (enzyme) | binding [3]: binds |
| no binding | HDAC6, endogenous in U2OS cells (from UniProt Q9UBN7 1-1215) (enzyme) | – |
| – | FLAG-tagged HMGB1 (high-mobility group box 1) expressed in U2OS cells (from UniProt P09429 1-215) | binding [4]: binds |
| no binding | HDAC3, endogenous in U2OS cells (from UniProt O15379 1-428) (enzyme) | – |
| – | pACT-HDAC1 (mammalian two-hybrid fusion) (from UniProt Q13547 1-482) (enzyme) | binding [5]: binds |
| binds | histone deacetylase 1 (HDAC1), endogenous in U2OS cells (from UniProt Q13547 1-482) (enzyme) | binding [6]: binds; binding [7]: binds; binding [8]: no binding (condition: with VNGD silenced (sh-VNGD)) |
| no binding | HDAC5, endogenous in U2OS cells (from UniProt Q9UQL6 1-1122) (enzyme) | – |
| no binding | HDAC8, endogenous in U2OS cells (enzyme, UniProt Q9BY41 1-377) MEEPEEPADSGQSLVPVYIYSPEYVSMCDSLAKIPKRASMVHSLIEAYALHKQMRIVKPKVASMEEMATFHTDAYLQHLQKVSQEGDDDHPDSIEYGLGYDCPATEGIFDYAAAIGGATITAAQCLIDGMCKVAINWSGGWHHAKKDEASGFCYLNDAVLGILRLRRKFERILYVDLDLHHGDGVEDAFSFTSKVMTVSLHKFSPGFFPGTGDVSDVGLGKGRYYSVNVPIQDGIQDEKYYQICESVLKEVYQAFNPKAVVLQLGADTIAGDPMCSFNMTPVGIGKCLKYILQWQLATLILGGGGYNLANTARCWTYLTGVILGKTLSSEIPDHEFFTAYGPDYVLEITPSCRPDRNEPHRIQQILNYIKGNLKHVV | – |
| no binding | HDAC7, endogenous in U2OS cells (enzyme, UniProt Q8WUI4 1-952) MDLRVGQRPPVEPPPEPTLLALQRPQRLHHHLFLAGLQQQRSVEPMRLSMDTPMPELQVGPQEQELRQLLHKDKSKRSAVASSVVKQKLAEVILKKQQAALERTVHPNSPGIPYRTLEPLETEGATRSMLSSFLPPVPSLPSDPPEHFPLRKTVSEPNLKLRYKPKKSLERRKNPLLRKESAPPSLRRRPAETLGDSSPSSSSTPASGCSSPNDSEHGPNPILGSEALLGQRLRLQETSVAPFALPTVSLLPAITLGLPAPARADSDRRTHPTLGPRGPILGSPHTPLFLPHGLEPEAGGTLPSRLQPILLLDPSGSHAPLLTVPGLGPLPFHFAQSLMTTERLSGSGLHWPLSRTRSEPLPPSATAPPPPGPMQPRLEQLKTHVQVIKRSAKPSEKPRLRQIPSAEDLETDGGGPGQVVDDGLEHRELGHGQPEARGPAPLQQHPQVLLWEQQRLAGRLPRGSTGDTVLLPLAQGGHRPLSRAQSSPAAPASLSAPEPASQARVLSSSETPARTLPFTTGLIYDSVMLKHQCSCGDNSRHPEHAGRIQSIWSRLQERGLRSQCECLRGRKASLEELQSVHSERHVLLYGTNPLSRLKLDNGKLAGLLAQRMFVMLPCGGVGVDTDTIWNELHSSNAARWAAGSVTDLAFKVASRELKNGFAVVRPPGHHADHSTAMGFCFFNSVAIACRQLQQQSKASKILIVDWDVHHGNGTQQTFYQDPSVLYISLHRHDDGNFFPGSGAVDEVGAGSGEGFNVNVAWAGGLDPPMGDPEYLAAFRIVVMPIAREFSPDLVLVSAGFDAAEGHPAPLGGYHVSAKCFGYMTQQLMNLAGGAVVLALEGGHDLTAICDASEACVAALLGNRVDPLSEEGWKQKPNLNAIRSLEAVIRVHSKYWGCMQRLASCPDSWVPRVPGADKEEVEAVTALASLSVGILAEDRPSEQLVEEEEPMNL | – |
| no binding | HDAC10, endogenous in U2OS cells (enzyme, UniProt Q969S8 1-669) MGTALVYHEDMTATRLLWDDPECEIERPERLTAALDRLRQRGLEQRCLRLSAREASEEELGLVHSPEYVSLVRETQVLGKEELQALSGQFDAIYFHPSTFHCARLAAGAGLQLVDAVLTGAVQNGLALVRPPGHHGQRAAANGFCVFNNVAIAAAHAKQKHGLHRILVVDWDVHHGQGIQYLFEDDPSVLYFSWHRYEHGRFWPFLRESDADAVGRGQGLGFTVNLPWNQVGMGNADYVAAFLHLLLPLAFEFDPELVLVSAGFDSAIGDPEGQMQATPECFAHLTQLLQVLAGGRVCAVLEGGYHLESLAESVCMTVQTLLGDPAPPLSGPMAPCQSALESIQSARAAQAPHWKSLQQQDVTAVPMSPSSHSPEGRPPPLLPGGPVCKAAASAPSSLLDQPCLCPAPSVRTAVALTTPDITLVLPPDVIQQEASALREETEAWARPHESLAREEALTALGKLLYLLDGMLDGQVNSGIAATPASAAAATLDVAVRRGLSHGAQRLLCVALGQLDRPPDLAHDGRSLWLNIRGKEAAALSMFHVSTPLPVMTGGFLSCILGLVLPLAYGFQPDLVLVALGPGHGLQGPHAALLAAMLRGLAGGRVLALLEENSTPQLAGILARVLNGEAPPSLGPSSVASPEDVQALMYLRGQLEPQWKMLQCHPHLVA | – |
